# Reference: PubChem BioAssay AID504832 (National Center for Advancing Translational Sciences (NCATS), 2011)
# Screen size: about 310,000 compounds; about 18,000 (5.8%) were called active. This list was built around the results that the source calls inconclusive (neither active nor inactive); the mix of calls is not that of the screen. Calls come from the whole dose curve; as a rule, active = well fitted inhibition curve with a large enough effect; inconclusive = small, poorly fitted or top-dose-only effect, or another doubt; inactive = no such curve, though single readings can be large or run the other way. Potencies of inconclusive entries are left out as doubtful fits.
# Assay: Primary qHTS for delayed death inhibitors of the malarial parasite plastid, 48 hour incubation
# Conditions: P. falciparum luciferase growth in erythrocytes; series mostly up to 28.7 µM
# How it was run: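 Luminescence readout; reporter = integrated firefly luciferase in P. falciparum. RBC culture at 2% hematocrit, 0.1% parasitemia final, 37 C/5% CO2; decreased signal taken as growth inhibition.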
# Potency is the fitted concentration of half-maximal effect; tags give direction and shape of the fitted curve.
row,SMILES,Potency
1,COc1ccc(N2C(=O)CC(N(C)CCc3ccc(OC)c(OC)c3)C2=O)cc1 (configuration not stated),active: 9.28 µM
2,O=C(OCCOc1ccc(F)cc1)c1ccc(S(=O)(=O)N2CCCC2)cc1,"inconclusive [inhibitor, single point]"
3,O=C(NC1CC1)C1C2C3C4CC5C3C5C4C12 (configuration not stated),active: 5.86 µM
4,O=C(NCc1ccc(-c2nc3ccccc3s2)cc1)c1ccco1,"inconclusive [inhibitor, single point]"
5,COC(=O)c1ccc(CSc2nnc(Nc3ccccc3OC)s2)o1,inactive
6,Cc1ccc2cc(CN(Cc3cccs3)Cc3nnnn3CC3CCCO3)c(=O)[nH]c2c1C (configuration not stated),"inconclusive [inhibitor, single point]"
7,CC(C)c1nnc(NC(=O)CC(C)c2ccccc2)s1 (configuration not stated),inactive
8,CCC(C)NC(=O)C1CCN(S(=O)(=O)c2ccc3nc4c(c(C(=O)O)c3c2)CCCCC4)CC1 (configuration not stated),inactive
9,Cc1cc(-n2cnnn2)cc(C)c1S(=O)(=O)N(C)c1ccccc1,"inconclusive [inhibitor, partial curve, poor fit]"
10,CCCCCCNC(=O)C(=O)NCCc1ccc(Cl)cc1,inactive
11,CCN(C(=O)COC(=O)c1cnc(C)cn1)C1CCCCC1,"inconclusive [inhibitor, single point]"
12,Cc1ccc(S(=O)(=O)N2CCN(CC(=O)N/N=C/c3cc([N+](=O)[O-])ccc3Cl)CC2)cc1,"inconclusive [inhibitor, single point]"
13,Cc1ccc(/C=C/C(=O)c2nc3ccccc3[nH]2)cc1,inactive
14,COc1ccc(NC(=O)CSCC(=O)Nc2ccccc2C(=O)N2CCCCC2)cc1,"inconclusive [inhibitor, partial curve, poor fit]"
15,Cc1cccc(N(Cc2cc3ccccc3[nH]c2=O)S(=O)(=O)c2ccccc2)c1,active: 14.7 µM
16,Nc1ccccc1SCCS(=O)(=O)c1ccc(Cl)cc1,inactive
17,Cc1cccc(NC(=S)N=Nc2c(O)n(CN3CCOCC3)c3ccccc23)c1C,active: 4.65 µM
18,C[C@@H](C(=O)Nc1ccc2ccccc2c1)[C@H]1C[C@]1(C)[C@H](NC(=O)OCc1ccccc1)c1ccccc1,"inconclusive [inhibitor, single point]"
19,CCCCN(CC)CCNC(=O)c1cn(-c2ccc(Cl)cc2)c(=O)c2ccccc12,"inconclusive [inhibitor, partial curve]"
20,COc1ccc(Cl)cc1NC(=O)CSc1nc(N2CCOCC2)nc(N2CCOCC2)n1,"inconclusive [inhibitor, partial curve, poor fit]"
21,CCCCC(=O)Nc1ccc(C(=O)Nc2nc(CC(=O)OCC)cs2)cc1,inactive
22,CC(C)(CO)CNC(=O)CCc1nnc(Cc2ccc(-c3ccccc3)cc2)o1,"inconclusive [inhibitor, partial curve, poor fit]"
23,OC(CNCCC1C=Nc2ccccc21)Cn1c2ccc(Cl)cc2c2cc(Cl)ccc21 (configuration not stated),active: 2.62 µM
24,COc1ccc(C)cc1S(=O)(=O)Nc1cc2c3c(c1)C(C)C(=O)N3CCC2 (configuration not stated),"inconclusive [inhibitor, single point]"

row,SMILES,Potency
1,CCNC(=O)CSc1nnc(-c2cccc(S(=O)(=O)N3CCOCC3)c2)o1,"inconclusive [inhibitor, single point]"
2,C=CCN(CC=C)C(=O)c1ccc(OC2CCN(C(C)=O)CC2)c(OC)c1,"inconclusive [inhibitor, full curve, poor fit]"
3,COc1ccc(Nc2nc(Cl)nc(NCc3ccco3)n2)cc1,inactive
4,O=C1CC[C@@H](CN(Cc2ccccn2)Cc2nc(-c3ccc(C(F)(F)F)cc3)no2)N1,"inconclusive [inhibitor, partial curve, poor fit]"
5,COc1ccc(C(=O)Nc2cc3c4c(c2)C(C)C(=O)N4CCC3)cc1OC (configuration not stated),"inconclusive [inhibitor, single point]"
6,CC(=O)Oc1c(-c2ccc(Br)o2)oc2ccccc2c1=O,"inconclusive [inhibitor, single point]"
7,C/C(CC(=O)Nc1ccc(N(C)C)cc1)=N\NC(=O)c1ccc([N+](=O)[O-])cc1Cl,inactive
8,O=C(NCc1ccco1)C(c1ccccc1)N(CC1CCCO1)C(=O)Cn1nnc2ccccc21 (configuration not stated),"inconclusive [inhibitor, partial curve]"
9,COc1ccc(Cc2n[nH]c(=S)o2)cc1,inactive
10,Cn1cc(C(=O)N2CCc3ccccc3C2)c(=O)c2cc(S(=O)(=O)N3CCCCC3)ccc21,inactive
11,CN(C)c1nc(SCc2ccccc2)nc(N2CCOCC2)n1,"inconclusive [inhibitor, partial curve, poor fit]"
12,O=C(CN1CCN(Cc2ccccc2)CC1)NC(c1ccccc1)c1ccccc1,"inconclusive [inhibitor, single point]"
13,Cn1c(O)c(N=NC(N)=S)c2ccccc21,"inconclusive [inhibitor, single point]"
14,O=C(CCS(=O)(=O)c1ccc(F)cc1)Nc1nnc(-c2cccs2)o1,"inconclusive [inhibitor, single point]"
15,COCCCNC(=O)CN(c1cc(C(F)(F)F)ccc1Cl)S(C)(=O)=O,inactive
16,Cc1cccnc1NC(=O)CCCNC(=O)c1ccc(Cl)cc1,inactive
17,Cc1cc(C(=O)COC(=O)c2ccc(O)cc2)c(C)n1CC1COc2ccccc2O1 (configuration not stated),"inconclusive [inhibitor, single point]"
18,Nc1cc(=O)[nH]c(SCc2ccc(Cl)cc2)n1,"inconclusive [inhibitor, single point]"
19,Cc1ccc(S(=O)(=O)N2CCCCC2)cc1NC(=O)c1cncc(Br)c1,"inconclusive [inhibitor, partial curve]"
20,O=C(Nc1ccccc1F)c1ccc(Br)o1,inactive
21,c1ccc(-n2nnnc2SCc2cn3cccnc3n2)cc1,inactive
22,Cc1cc(C)cc(-n2c(SCC(=O)Nc3cccc(S(=O)(=O)NC4=NCCCCC4)c3)nc3ccccc3c2=O)c1,"inconclusive [inhibitor, partial curve]"
23,O=C(Nc1ccn(C2CC(OC(=O)c3ccccc3)C(CO)O2)c(=O)n1)c1ccccc1 (configuration not stated),"inconclusive [inhibitor, single point]"
24,O=C(CCc1ccccc1)Nc1cc2c3c(c1)CC(=O)N3CCC2,"inconclusive [inhibitor, single point]"

row,SMILES,Potency
1,O=C(NCCC1=CCCCC1)c1c(O)nc2ccccn2c1=O,"inconclusive [inhibitor, single point]"
2,COc1ccc(S(=O)(=O)N(C)CC(=O)NCc2ccco2)cc1Cl,inactive
3,CC(C)(C)n1nc2c(c1NC(=O)C1CC(=O)N(c3ccc(Cl)cc3)C1)CS(=O)(=O)C2 (configuration not stated),inactive
4,O=C1c2ccccc2C(=O)C1c1ccc(O)cc1,inactive
5,Cc1ccc(NC(=O)C2CCN(S(=O)(=O)c3ccc4c(c3)OCCCO4)CC2)nc1,"inconclusive [inhibitor, partial curve, poor fit]"
6,COc1ccc(S(=O)(=O)N2CCC(C(=O)NCC3CC3)CC2)cc1,active: 10.4 µM
7,O=C(c1ccccc1F)N1CCN(c2cccc(C(F)(F)F)c2)CC1,"inconclusive [inhibitor, single point]"
8,Nc1ccc(-c2cc(-c3cccc(N)c3)nc(-c3ccccc3)n2)cc1,active: 13.1 µM
9,Cn1c(=O)c2c(nc(NCc3ccccc3)n2CCCc2ccccc2)n(C)c1=O,"inconclusive [inhibitor, single point]"
10,Cn1cc(Br)c(-c2cccc(NC(=O)CCC(=O)O)c2)n1,"inconclusive [inhibitor, single point]"
11,Cc1sc(NC(=O)c2ccco2)c(C(c2ccncc2)N2CCOCC2)c1C (configuration not stated),active: 10.4 µM
12,O=C(C[n+]1cc(-c2ccccc2)n2c1CCCCC2)c1ccc(Cl)cc1,active: 1.47 µM
13,CC(=O)c1cccc(NC(=O)Nc2ccccc2)c1,inactive
14,O=C(Nc1nnc(Cc2ccccc2)s1)c1cccnc1,inactive
15,COC(=O)CSc1nc(-c2ccc(F)cc2)cc(C(F)(F)F)n1,inactive
16,CC1=NN(C(C#N)c2c(C)nn(Cc3ccccc3)c2C)C(C)(C)C1 (configuration not stated),inactive
17,CCC1CCCCN1CCCNC(=O)C1CCCN(c2ncnc3c2nc2n3CCCCC2)C1 (configuration not stated),"inconclusive [inhibitor, partial curve, poor fit]"
18,CC(=O)Oc1ccc(-c2ccc(C(=O)OCC(=O)N(C)CC(=O)Nc3ccccc3Cl)cc2)cc1,inactive
19,COc1cccc(/C=N/NC(=O)c2ccc(=O)n(C)c2)c1O,"inconclusive [inhibitor, single point]"
20,O=C(CSCc1nc2ccccc2[nH]1)N1CCN(c2ccc(F)cc2)CC1,"inconclusive [inhibitor, single point]"
21,Cc1cc2ccccc2n1CCNC(=O)c1ccc(S(=O)(=O)N2CCCCC2)cc1,active: 2.08 µM
22,CCn1c2ccccc2c2cc(NC(=O)C(C)Oc3ccccc3)ccc21 (configuration not stated),"inconclusive [inhibitor, partial curve, poor fit]"
23,COc1ccc(-c2cc(C(=O)OC3CCOC3=O)c3ccccc3n2)cc1OC (configuration not stated),"inconclusive [inhibitor, single point]"
24,O=C1/C(=C/c2cccnc2)CCC/C1=C\c1cccnc1,active: 10.4 µM
